Source: patent US20260242472A1 (SANYOU BIOPHARMACEUTICALS, published 2026)

T1: huCD3E-AA1-27-huFc-Biotin (human, biotinylated (sites not given))
T1 construct: also called biotinylated huCD3E AA1-27-huFc
T1 chain: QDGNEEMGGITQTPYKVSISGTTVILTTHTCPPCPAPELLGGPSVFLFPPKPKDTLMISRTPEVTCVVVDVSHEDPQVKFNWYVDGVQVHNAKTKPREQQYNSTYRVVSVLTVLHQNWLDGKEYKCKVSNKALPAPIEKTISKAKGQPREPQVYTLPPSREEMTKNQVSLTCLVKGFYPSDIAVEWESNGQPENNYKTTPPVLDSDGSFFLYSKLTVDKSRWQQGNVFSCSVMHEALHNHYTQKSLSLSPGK

T2: huCD3E-AA1-27-huFc (human)
T2 construct: Made in HEK293 cells, purified on Protein A/G. No linker between the two parts is mentioned; also called antigen protein
T2 chain: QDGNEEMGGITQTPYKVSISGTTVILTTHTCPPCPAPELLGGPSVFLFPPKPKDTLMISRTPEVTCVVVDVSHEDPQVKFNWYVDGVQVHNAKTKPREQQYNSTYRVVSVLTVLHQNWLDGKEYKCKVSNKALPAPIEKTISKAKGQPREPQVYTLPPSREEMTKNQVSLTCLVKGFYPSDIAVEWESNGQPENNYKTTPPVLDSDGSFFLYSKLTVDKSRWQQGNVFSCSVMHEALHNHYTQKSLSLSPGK


Experiments:
[1] = target: T1, huCD3E-AA1-27-huFc-Biotin; assay: BLI (Gator), biotinylated antigen on SA probe, antibody 0.62-40 nM
Experimental: Protein biotinylation: The antigen protein huCD3E AA1-27-huFc was diluted to a final concentration of 1 mg/mL, premixed with biotin and reacted at 4° C. for 1 h, and then unreacted free biotin was removed by filtration with an ultrafiltration tube to obtain biotinylated huCD3E AA1-27-huFc (hereinafter referred to as huCD3E-AA1-27-huFc-Biotin).
In the dark, the sensor was pre-wetted with Q Buffer (SA Probes, ProbeLife). After 10 min, the sample plate (Greiner, 655209) was tested. After the test was correct, the preset procedure was followed. First, antigen binding was performed for 600 s. After the binding was completed and equilibration was continued in Q Buffer for 30 s, the sensor bound to the antigen huCD3E-AA1-27-huFc-Biotin was transferred to different concentrations of antibody dilutions for binding for 120 s, and then transferred to Q Buffer for dissociation for 180 s. Finally, KD, Ka and Kd were obtained by fitting the binding and dissociation data of different concentrations of antigens and antibodies.

[2] = target: T2, huCD3E-AA1-27-huFc; assay: SPR (Biacore T200), antigen amine-coupled to about 75 RU, antibody 4 and 20 nM, 1:1 Langmuir fit
Experimental: Protein coupling: The huCD3E-AA1-27-huFc protein produced in example 1.2 was diluted to 5.8 μg/mL with an NaAc buffer at pH 4.5. The flow rate was set to 10 μL/min. The chip was activated with a mixture of 1-ethyl-(3-dimethylaminopropyl)carbodiimide (EDC) and N-hydroxysuccinimide (NHS) for the default time of 420 s. The antigen protein huCD3E AA1-27-huFc was immobilized to a level of approximately 75 RU using a coupling mode with a preset coupling amount. The activated groups not bound to the test sample were blocked with ethanolamine.
Sample test condition: A PBS buffer (pH 7.4) containing 0.05% Tween-20 was used as a running buffer, and the running buffer was used as a control antibody test sample. A series of antibody concentrations (4 nM, 20 nM) were set. During sample analysis, the flow rate was set to 30 μL/min, the binding time was 180 s, and the dissociation time was 300 s. After dissociation was completed, regeneration was performed with 10 mM Gly-HCl (pH 2.0) for 20 s to completely remove antibody bound to the antigen.
Parameter fitting: The experiment was run in multiple cycles, with the response signal plotted against analysis time on the abscissa and response value on the ordinate. After dual-reference subtraction, the obtained data were fitted by BIAcore T200 analysis software. The fitting model used was a 1:1 Langmuir binding model, so as to determine affinity indicators such as the binding dissociation constant.

[3] = target: T3, CD3 on Jurkat cells (human, UniProt P07766); assay: flow cytometry on Jurkat cells, PE anti-human IgG Fc secondary; EC50 from the table drawn beside the curves, unit taken from the concentration axis
T3 construct: whole, on cells; only the CD3E chain is named here, the other chains of the complex are not described; also called Jurkat cells (human T lymphocytic leukemia cells); NF-κB-Jurkat cells

[4] = target: T4, human CD3D and CD3E on huCD3D-CD3E-CHO-K1 cells (human, UniProt P04234; P07766); assay: flow cytometry on huCD3D-CD3E-CHO-K1 cells, PE anti-human IgG Fc secondary; EC50 from the table drawn beside the curves, unit taken from the concentration axis
T4 construct: Whole entries as named, with their signal peptides; also called human CD3D&CD3E
T4 sequence (P04234 22-171 limits assumed): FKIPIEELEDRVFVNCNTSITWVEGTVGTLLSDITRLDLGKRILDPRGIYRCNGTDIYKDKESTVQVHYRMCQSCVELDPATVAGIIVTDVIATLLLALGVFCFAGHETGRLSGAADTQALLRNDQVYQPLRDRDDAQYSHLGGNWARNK

| Kd [1] [nM] | koff [1] [s⁻¹] | kon [1] [M⁻¹ s⁻¹] | Kd [2] [nM] | koff [2] [s⁻¹] | kon [2] [M⁻¹ s⁻¹] | EC50 [3] [µg/mL] | EC50 [4] [µg/mL] | Binder |
| --- | --- | --- | --- | --- | --- | --- | --- | --- |
| 0.136 | 0.000226 | 1.66e+06 | 0.0569 | 0.000138 | 2.43e+06 | – | – | 63-P3-1-scFv-LH (Fc fusion) scFv: QTVVTQEPSLTVSPGGTVTLTCGSSTGAVTSGYYPNWVQQKPGQAPRGLIGGTKFLAPGTPARFSGSLLGGKAALTLSGVQPEDEAEYYCALWVDNRWVFGGGTKLTVLGGGGSGGGGSGGGGSEVQLVESGGGLVQPGGSLKLSCAASGFTFSKYAMNWVRQASGKGLEWVGRIRSKYNNYATYYADSVKDRFTISRDDSKNTAYLQMNNLKTEDTAVYYCVRHGNFGNSYISYWAYWGQGTTVTVSS[letters of human IgG4 Fc with S228P (EU numbers) not shown] |
| 0.384 | 0.000471 | 1.23e+06 | – | – | – | – | – | 79-P3-1-scFv-LH (Fc fusion) scFv: QTVVTQEPSLTVSPGGTVTLTCGSSTGAVTSGYYPNWVQQKPGQAPRGLIGGTKFLAPGTPARFSGSLLGGKAALTLSGVQPEDEAEYYCALWQENRWVFGGGTKLTVLGGGGSGGGGSGGGGSEVQLVESGGGLVQPGGSLKLSCAASGFTFSKYAMNWVRQASGKGLEWVGRIRSKYNNYATYYADSVKDRFTISRDDSKNTAYLQMNNLKTEDTAVYYCVRHGNFGNSYISYWAYWGQGTTVTVSS[letters of human IgG4 Fc with S228P (EU numbers) not shown] |
| 0.216 | 0.000434 | 2.01e+06 | 0.0485 | 9.38e-05 | 1.93e+06 | 0.0241 | – | 78-P3-1-scFv-LH (Fc fusion) scFv: QTVVTQEPSLTVSPGGTVTLTCGSSTGAVTSGYYPNWVQQKPGQAPRGLIGGTHFLAPGTPARFSGSLLGGKAALTLSGVQPEDEAEYYCALWYSNRWVFGGGTKLTVLGGGGSGGGGSGGGGSEVQLVESGGGLVQPGGSLKLSCAASGFTFSKYAMNWVRQASGKGLEWVGRIRSKYNNYETYYADSVKDRFTISRDDSKNTAYLQMNNLKTEDTAVYYCVRHGNFGNSYISYWAYWGQGTTVTVSS[letters of human IgG4 Fc with S228P (EU numbers) not shown] |
| 0.332 | 0.00041 | 1.23e+06 | – | – | – | – | – | P2-3-5-scFv-LH (Fc fusion) scFv: QTVVTQEPSLTVSPGGTVTLTCGSSTGAVTSGYYPNWVQQKPGQAPRALIGGTKFLAPGTPARFSGSLLGGKAALTLSGVQPEDEAEYYCALWYSNRWVFGGGTKLTVLGGGGSGGGGSGGGGSEVQLVESGGGLVQPGGSLKLSCAASGFTFSKYAMNWVRQASGKGLEWVGRIRSKYNNYATYYADSVKDRFTISRDDSKNTAYLQMNNLKTEDTAVYYCVRHGNFGNSYISYWAYWGQGTTVTVSS[letters of human IgG4 Fc with S228P (EU numbers) not shown] |
| 33.1 | 0.0143 | 431000 | 8.71 | 0.0177 | 2.03e+06 | – | – | 78-P1-3-scFv-LH (Fc fusion) scFv: QTVVTQEPSLTVSPGGTVTLTCGSSTGAVTSGYYPNWVQQKPGQAPRALIYGTHFLAPGTPARFSGSLLGGKAALTLSGVQPEDEAEYYCALWYSNRWVFGGGTKLTVLGGGGSGGGGSGGGGSEVQLVESGGGLVQPGGSLKLSCAASGFTFPKYAMNWVRQAPGKGLEWVGRIRSKYNNYETYYADSVKDRFTISRDDSKNTAYLQMNNLKTEDTAVYYCVRHGNFGNSYISYWAYWGQGTTVTVSS[letters of human IgG4 Fc with S228P (EU numbers) not shown] |
| 0.499 | 0.000584 | 1.17e+06 | – | – | – | – | 0.096 | P3-1-scFv-LH (Fc fusion, scFv-Fc) scFv: [letters of about 120 residues not shown]GGGSGGGGSGGGGSEVQLVESGGGLVQPGGSLKLSCAASGFTFSKYAMNWVRQASGKGLEWVGRIRSKYNNYATYYADSVKDRFTISRDDSKNTAYLQMNNLKTEDTAVYYCVRHGNFGNSYISYWAYWGQGTTVTVSS[letters of human IgG4 Fc with S228P (EU numbers) not shown] |
| 3.94 | 0.00237 | 602000 | – | – | – | – | – | P1-3-3-scFv-LH (Fc fusion) scFv: QTVVTQEPSLTVSPGGTVTLTCGSSTGAVTSGYYPNWVQQKPGQAPRALIYGTKFLAPGTPARFSGSLLGGKAALTLSGVQPEDEAEYYCALWYSNRWVFGGGTKLTVLGGGGSGGGGSGGGGSEVQLVESGGGLVQPGGSLKLSCAASGFTFSKYAMNWVRQASGKGLEWVGRIRSKYNNYATYYADSVKDRFTISRDDSKNTAYLQMNNLKTEDTAVYYCVRHGNFGNSYISYWAYWGQGTTVTVSS[letters of human IgG4 Fc with S228P (EU numbers) not shown] |
